Experimental findings from PubChem BioAssay (NCI) are described below.

Where “and” joins values, the source holds several entries; their conditions need not be identical. Equal values may be shown once.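 Where inhibition never reached the appropriate level, the endpoint shown equals the highest concentration tested. Otherwise, values were interpolated linearly from a five-concentration, 48-hour dose response in 96-well plates. The concentration for 50% growth inhibition is given as GI50. TGI is the concentration that stops growth completely.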 A value given as a limit tells only on which side of the number the result lay.

The assay has as its system NCI-H322M lung. Description: NCI tumour cell line growth inhibition, 48 h.
On to `Nc1ccc(C(OC(=O)c2cc3ccccc3c(Cc3c(O)c(C(=O)OC(c4ccc(N)cc4)(c4ccc(N)cc4)c4ccc(N)cc4)cc4ccccc34)c2O)(c2ccc(N)cc2)c2ccc(N)cc2)cc1`, for which the GI50 was 0.855 µM and the TGI worked out at 50.5 µM.
`O=C1C(=O)N(c2nccs2)C(=O)C(=O)C1c1nc2ccccc2s1` yielded a TGI above 100 µM.
In the case of `CCCCCCCCCCCCCCCCCCOc1ccccc1CC(=O)NCC[N+](C)(C)C`, the GI50 was 10.2 µM and the TGI was above 100 µM.
The molecule `CCOC(=O)C(=CN1CCNC1=S)C(=O)OCC` came in with a TGI above 100 µM.
Consider `N#C/C(=C\c1c(-c2ccccc2)[nH]c2ccccc12)C(=O)c1ccccc1`, for which the GI50 was 3.82 µM and the TGI was above 100 µM.
The molecule `S=c1sc2cscc2s1` returned a TGI of 36.6 µM.
Molecule `COc1ccccc1C1(C)SCc2nc3ccccc3n21` (stereo unspecified) came in with a TGI above 10 µM.
`CCOC(=O)N1C(c2ccccc2)C=CC(c2ccccc2)N1C(=O)OCC` (stereo unspecified) had a TGI above 100 µM.
Regarding `CC(C)C[C@H](NC(=O)[C@H](Cc1cccc2ccccc12)NS(=O)(=O)c1cccc2cccnc12)B(O)O`, the GI50 was 0.722 µM and the TGI worked out at 14.1 µM.
On to `COc1ccc(-c2cc(-c3cccc(NS(C)(=O)=O)c3)nc(N)c2C#N)cc1`, for which the GI50 is 0.461 µM and the TGI was above 82.7 µM.
In the case of `CCCC(=O)NC(Nc1ccc(F)cc1)(C(F)(F)F)C(F)(F)F`, the TGI is above 100 µM.
`CCOC(=O)C(C)(C)Oc1ccc2c(-c3ccc(Cl)cc3)c(-c3ccc(Cl)cc3)c(=O)oc2c1` displayed a TGI above 100 µM.
In the case of `O=[N+]([O-])c1cccc(Cl)c1Oc1ccc(S(=O)(=O)/N=C(\NO)Nc2ccc(Cl)cc2)cc1`, the TGI worked out at 24.8 µM.
Take `CC(C)(C)OC(=O)N1[C@@H]2Cc3ccc(N)cc3[C@@]1(C)c1ccccc12`: the TGI was above 100 µM.
Regarding `CC(C)C(=O)[O-].CC(C)C(=O)[O-].N.N.N.N.[Co+3].[O-][Cl+3]([O-])([O-])[O-]`, the GI50 is above 100 µM and the TGI is above 100 µM.
Regarding `Cc1cnccc1N=Nc1ccc(N(C)C)cc1`, the TGI is above 100 µM.
Turning to `COc1ccc(CNc2nc3cc(C(F)(F)F)ccc3nc2-c2ccccc2)cc1OC`, the TGI is above 100 µM.
On the same count and under the same terms, in the case of `Cc1ccccc1C(=O)Oc1ccc(OCc2ccccc2)cc1` it was above 100 µM; in that of `CC(=O)OC(C)(C)CCC(=O)[C@](C)(O)[C@H]1[C@H](O)C[C@@]2(C)[C@@H]3CC=C4C(C)=C(OC5OC(CO)C(O)C(O)C5O)C(=O)C[C@@H]4[C@]3(C)C(=O)C[C@]12C` (stereo partly specified), above 100 µM; in that of `CC(=O)OCCCCn1cc(Cn2ccc(=O)n(Cc3cn(CCCCOC(C)=O)nn3)c2=O)nn1`, above 100 µM.
In the case of `NCCCN1CCN(CCCNc2nc3ccccc3c3[nH]c4ccccc4c23)CC1`, the GI50 is 0.437 µM and the TGI stood at 5.84 µM.
With `Cc1c(O)c(OC2OC(CO)C(O)C(O)C2O)cc2c1C=C[C@@H]1[C@@]2(C)C(=O)C[C@]2(C)[C@@H]([C@@](C)(O)C(=O)CCC(C)(C)O)[C@H](O)C[C@@]12C` (stereo partly specified), the TGI was determined as 58.2 µM.
`Cn1cnc2c(F)c(Nc3ccc(Br)cc3F)c(C(=O)NOCCO)cc21`: the GI50 is 0.245 µM and 0.287 µM; the TGI was above 100 µM.
In turn, `COc1ccc([C@]23CCN4COC[C@@H]([C@H]42)C2(CC3)OCC(C)(C)CO2)cc1OC` yielded a TGI above 100 µM.
Consider `C=Cc1nc(C#N)c(N)o1`, for which the TGI was above 100 µM.
Same read-out and setting: to `Cc1cc(N2CCCC2)c([N+](=O)[O-])cc1[N+](=O)[O-]` belongs above 100 µM.
Same read-out and setting: to `COC12C=CC(C=C1C#N)CC2` (stereo unspecified) (tested in a mixture with another compound) belongs above 100 µM; to `COc1nc2c(nc(N)n2C2OCC(O)C(O)C2O)c(=O)n1C` (stereo unspecified), above 100 µM.
As to `O=C(N/N=C/c1ccc(Cl)cc1Cl)c1ccc2nc(-c3ccc(Cl)cc3)[nH]c2c1`, the GI50 is 2.15 µM and the TGI was found to be 5.26 µM.
On to `O=c1cccccc1[O-].O=c1cccccc1[O-].O=c1cccccc1[O-].[Ce+3]`, for which the TGI amounted to 86.1 µM.
Still for that read-out and setting: in the case of `N#CC[N+]1(Cc2ccccn2)CCCC1` it was above 100 µM; in that of `COC(=O)c1cccc(OC)c1C#Cc1c(OC)cccc1OC`, above 100 µM.
For the molecule `COc1ccc(Cn2cc3c(c2-c2cc(OC)c(OC)c(OC)c2)CCc2cnoc2-3)cc1N`, the GI50 is 0.0599 µM and the TGI was above 100 µM.
`N=c1oc2ccccc2cc1-c1nc2ccccc2c(=O)[nH]1` showed a TGI above 100 µM.
Regarding `CCN(CC)CCOC(=O)Cc1cccc2c(=O)cc(-c3ccccc3)oc12`, the GI50 was above 71.5 µM; the TGI is 62.5 µM and > 107 µM.
Turning to `COc1c(Cl)ccc2c(-c3nc4cc(Cl)c(F)cc4s3)cc(=O)oc12`, the GI50 is 56.6 µM and the TGI was above 100 µM.
In turn, `O=C1CS[C@@](CC(c2ccc(Cl)cc2)c2ccc(Cl)cc2)(c2ccc(Cl)cc2)N1` gave a TGI above 100 µM.
`CCc1ccc2nccc(NCCCN(C)C)c2c1[N+](=O)[O-]` came in with a TGI above 100 µM.
Same read-out and setting: to `CCOC(=O)CCC(NC(=O)Cc1ccc(Oc2nc3ccccc3nc2-c2ccccc2)cc1)C(=O)OCC` (stereo unspecified) belongs above 100 µM.
Turning to `Cn1c(=O)c(C(=O)NC(=O)NCCCCCOC(=O)CCCCCCCCCCC(=O)OCCCCCNC(=O)NC(=O)c2cn(Cc3ccccc3)c(=O)n(C)c2=O)cn(Cc2ccccc2)c1=O`, the TGI is above 100 µM.
In the case of `CNC1=C(C(=O)OC)SC(c2ccccc2)(c2ccccc2)SC1`, the GI50 is 22.5 µM and the TGI was above 100 µM.
Turning to `COc1cccc(-c2nccc3c(OCc4ccccc4)c(OC)c(OC)cc23)c1`, the TGI is above 100 µM.
Turning to `COc1ccc2c(c1)c(-c1ccc(-c3cn(C)c4ccc(OC)cc34)[nH]1)cn2C`, the GI50 is 7.17 µM and the TGI worked out at 34.7 µM.
For `CN(C)CCCCn1ccc2c1C(=O)c1c(c(O)c3ccccc3c1O)C2=O`, the GI50 is 1.63 µM and the TGI is 11.7 µM.
As to `Cc1c(-c2nnc(-c3ccccc3)o2)c(=O)n(-c2ccccc2)n1C`, the TGI is above 100 µM.
As for `O=[N+]([O-])c1ccc([N+]2=NC(c3ccccc3)=NN(c3ccccc3)C2)cc1`, the TGI was above 100 µM.
For the molecule `Cc1cc(N(CCCNc2ccnc3cc(Cl)ccc23)Cc2ccc3c(c2)OCO3)nc(N2CCCCC2)n1`, the GI50 was 2.42 µM and the TGI was 8.22 µM.
Consider `NCc1c(C(N)=O)ncn1Cc1ccccc1`, for which the TGI was above 100 µM.
For the molecule `COc1ccc(-c2ccc(-c3ccc(C(=N)N)cn3)o2)cc1Cl`, the GI50 was 1.63 µM and the TGI stood at 3.28 µM.
In turn, `Cc1ccc(C2=C(c3ccc(C)cc3)C(c3ccc(C)cc3)=C(c3ccc(C)cc3)C2=O)cc1` came in with a TGI above 100 µM.
In turn, `CCOC(=O)C(NC(=O)CC)(Nc1ccc(F)c(Cl)c1)C(F)(F)F` (stereo unspecified) showed a TGI above 100 µM.
In turn, `CC(C)CC12CC3CCC(CNC1=O)C32C` (stereo unspecified) had a TGI above 100 µM.
With `O=C(O)c1ccccc1N=Nc1ccc2oc(=O)c(C(=O)Nc3ccccc3)cc2c1`, the TGI was above 100 µM.
Still for that read-out and setting: to `c1ccc(B2OCC(C3OB(c4ccccc4)OC4COB(c5ccccc5)OC43)O2)cc1` (stereo unspecified) belongs above 100 µM.
`COc1ccc2c(c1)c1nn(CCN3CCCCC3)c3ccc4c(=O)n(CCN(C)C)c(=O)n2c4c13` came in with a TGI of 0.264 µM.
The same measure, in the same setting: in the case of `COc1c2ccsc2c(OC)c2ccsc12` it was above 100 µM.
As for `O=C(COc1cccc(/C=C2\Oc3ccc4ccccc4c3C2=O)c1)c1ccc(Cl)cc1`, the GI50 was above 100 µM and the TGI was above 100 µM.
In turn, `c1csc(-c2ccsc2-c2ccsc2)c1` returned a TGI above 100 µM.
